Test results as given in the RNAGym collection of RNA variant scans (doi:10.1093/nar/gkz1192).
Read counts are not given, so values of variants with three or more changes are uncertain.

B1: CPEB3 Ribozyme (parent)
chain: UAACAGGGGGCCACAGCAGAAGCGUUCACGUCGCAGCCCCUGUCAGAUUCUGGUGAAUCUGCGAAUUCUGCUGUAUAUCUC

Variants of: B1
Assay: self-cleavage, relative activity (ratio to wild type); higher = more cleavage; in vitro, sequencing
Summary of the method: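 CPEB3 self-cleaving ribozyme mutant libraries were made by rounds of error-prone PCR, barcoded, and transcribed in vitro with T7 RNA polymerase for 5 hours at 37°C. Cleavage occurred during transcription and a 15 min DNase I step before EDTA stop. RNAs were reverse transcribed with template switching and Illumina-sequenced, with DNA sequencing mapping barcodes to variants. Relative activity is the variant's cleaved/total read fraction divided by wild type's (minimum 5 reads), averaged across three batches.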
For G10A A20U A35G, the self-cleavage was 0.25.
Variant G9U A28G U41C has a self-cleavage of 0.17.
G10A U25C A35G U48A gave a self-cleavage of 0.27.
G10A U25C A35G U41C G46C showed a self-cleavage of 0.2.
For G9U U26A U54C C62U, the self-cleavage was 0.03.
With G10A C32A U54A U69C U74A the self-cleavage was 0.1.
With G9U A28U A56G U60C U80C the self-cleavage was 0.17.
In the case of G9U A21G U49C, the self-cleavage is reported as 0.14.
G10C A18C U25C A56U U69A showed a self-cleavage of 0.
With G10A U25C A77U the self-cleavage was 0.39.
G10A A20G A77G gave a self-cleavage of 0.49.
G10A U49A C50U gave a self-cleavage of 0.07.
For G10A A13U C23A U26C, the self-cleavage was 0.07.
G10A A18G U67C U78A gave a self-cleavage of 0.04.
G10A A15C U41A U60C A65G U78C showed a self-cleavage of 0.04.
Variant G10A U49G U51A U67C has a self-cleavage of 0.11.
Variant G10A A35U U48C U76C has a self-cleavage of 0.03.
Work on G10A U25A U26C C39A U72A yielded a self-cleavage of 0.14.
Variant G9U C44U A56G U58G A77G has a self-cleavage of 0.13.
With G10A A13U A18G A57G U72A the self-cleavage was 0.18.
In the case of G10A A21G G36A, the self-cleavage is reported as 0.22.
Work on G10A A13G A56G yielded a self-cleavage of 0.05.
Work on G9U A35C A45G U49C yielded a self-cleavage of 0.17.
G10A U31C A56G U60A A64G U72A showed a self-cleavage of 0.08.
Variant G10A A18U U72C has a self-cleavage of 0.34.
With G10A U26C U51A A57G U67C the self-cleavage was 0.05.
In the case of G10C A15C A47G U72A, the self-cleavage is reported as 0.3.
Variant G10A A15G A35C A56G U69A has a self-cleavage of 0.09.
Variant G10A A28G U48C U58C has a self-cleavage of 0.06.
Work on G10A A21G U26G A64G U66C yielded a self-cleavage of 0.07.
G10A U25C U31C A45U U67C gave a self-cleavage of 0.04.
With G10A A18U U43A U69C the self-cleavage was 0.37.
Variant G9U A28G A57G U58C has a self-cleavage of 0.09.
G10A A18C A21U A35C C62U showed a self-cleavage of 0.04.
With G10A U60C U69G the self-cleavage was 0.35.
Work on G10C A28G G42A A45G U58A yielded a self-cleavage of 0.12.
For G10C A20G U49C G63A U72C U76C, the self-cleavage was 0.16.
G10A C39U A56U showed a self-cleavage of 0.13.
G10A A35C C68G gave a self-cleavage of 0.02.
In the case of G10A A20G U43C A45U A56G A64U C68U, the self-cleavage is reported as 0.23.
Work on G10A A35U A56G U60A U78A yielded a self-cleavage of 0.2.
G9U U25C U41C G53A showed a self-cleavage of 0.18.
G10A U26G U51C A56C U60A A64G U69C showed a self-cleavage of 0.04.
G10C A13C U25C C27G U78C gave a self-cleavage of 0.15.
With G10A U25C C29U A35G U51C A65G U67C the self-cleavage was 0.04.
For G10A G30A U41A U51A A56G, the self-cleavage was 0.04.
In the case of G9U U25A C29G U31A U43C A45U U67C, the self-cleavage is reported as 0.02.
G10A A13U U31G C44U U72C U78C showed a self-cleavage of 0.04.
For G10A A18G A45U U54A G63U, the self-cleavage was 0.07.
For G10A A21G U58C, the self-cleavage was 0.08.
G9U A65G U78C showed a self-cleavage of 0.1.
G10C A28G U60C gave a self-cleavage of 0.12.
G10A U25C G33U A35U U54C showed a self-cleavage of 0.06.
For G10A A18G C29U A45G G63A U80C, the self-cleavage was 0.04.
With G10A A18U U43C A57G A64U the self-cleavage was 0.1.
Work on G10A U26C U48C U60C yielded a self-cleavage of 0.04.
In the case of G10A A13U U31C U78A, the self-cleavage is reported as 0.3.
For G10A U66C U78C, the self-cleavage was 0.05.
Work on G10A A47U U60C A65G U69A yielded a self-cleavage of 0.16.
Variant G9U U49C A65G U67C has a self-cleavage of 0.31.
Work on G10A A20G U25C U78C yielded a self-cleavage of 0.29.
G10A C40U A56G G61A U69A gave a self-cleavage of 0.04.
Variant G10A C14U A56G G61A A64G has a self-cleavage of 0.06.
Variant G10C A45C U48C has a self-cleavage of 0.14.
G9U A56G U66C gave a self-cleavage of 0.4.
Variant G10A G16A A64U has a self-cleavage of 0.08.
Work on G10A C29A U60C A65U yielded a self-cleavage of 0.05.
G10C A35U A45G showed a self-cleavage of 0.08.
Variant G10A A15U G36A A45G has a self-cleavage of 0.2.
With G10A G53A U60G U80G the self-cleavage was 0.05.
G10A A21G A45G U66A showed a self-cleavage of 0.08.
Work on G10A U31C U67C A77U yielded a self-cleavage of 0.08.
For G10A A45G U54A A75C, the self-cleavage was 0.09.
G10A U54C A75G showed a self-cleavage of 0.13.
G10C A21G C29G G33C A35C U41C gave a self-cleavage of 0.05.
For G10A A18G C29U U51C U66C, the self-cleavage was 0.07.
G10A U49C A64C A65G showed a self-cleavage of 0.27.
G10A G36C C40U U69C showed a self-cleavage of 0.1.
G9U C12U G19U A21C G30A U43C U66C showed a self-cleavage of 0.03.
Variant G10A A21U A35U U49A U54A has a self-cleavage of 0.11.
Variant G10A U31C A57G C62A has a self-cleavage of 0.13.
Work on G10A A15G U41G A57C U72C yielded a self-cleavage of 0.08.
G10C C11A U74A showed a self-cleavage of 0.32.
Variant G10A G30A U43A A47G U60A A65G has a self-cleavage of 0.05.
Variant G10A U31G U41G G55U U67C A75G has a self-cleavage of 0.04.
For G9U C38U U72A U78C, the self-cleavage was 0.08.
In the case of G10A U41C U49C U51C U69A, the self-cleavage is reported as 0.06.
G10C A15G G24A G36U G70C showed a self-cleavage of 0.09.
Work on G10C A21G A77G yielded a self-cleavage of 0.17.
In the case of G9U G16U A20G A35U G63U U76C, the self-cleavage is reported as 0.19.
For G10C A15G A47G C68U U69C U72A, the self-cleavage was 0.07.
For G9U U69C U76C, the self-cleavage was 0.13.
Work on G10A C14G C39A yielded a self-cleavage of 0.23.
With G10A U31A U49C the self-cleavage was 0.05.
Work on G10A A13C A18G U51A U66C yielded a self-cleavage of 0.13.
G10A U31A A35G gave a self-cleavage of 0.45.
In the case of G10A G22U U49A A57G U58C, the self-cleavage is reported as 0.11.
For G10A A35C U41C U49A A64G U66G U80C, the self-cleavage was 0.04.
In the case of G10A U41A U49C U51C U69C, the self-cleavage is reported as 0.05.
Work on G10A U41C U72C yielded a self-cleavage of 0.81.
For G9U C12U A18G A35G, the self-cleavage was 0.08.
In the case of G10A A28G U41C A45C C50U, the self-cleavage is reported as 0.08.
G10A A45G U54C U60G U67C gave a self-cleavage of 0.09.
G10A A18U A21G U41A A56U A57C U67C showed a self-cleavage of 0.04.
Variant G9U C40A U58C A75G has a self-cleavage of 0.06.
G10A U60C U69C U72C U80A showed a self-cleavage of 0.12.
G10A A20U G36U A57U gave a self-cleavage of 0.04.
In the case of G9U U31C U74C, the self-cleavage is reported as 0.21.
In the case of G10A U26A U43A, the self-cleavage is reported as 0.14.
In the case of G10A U31A G36C U69C, the self-cleavage is reported as 0.06.
Work on G10A A15U C27A A28G U41C U54A yielded a self-cleavage of 0.18.
For G9U G53U A57G, the self-cleavage was 0.08.
Variant G10A A28G U74C has a self-cleavage of 0.2.
Variant G10A A15G A47G U60A A65G G70C has a self-cleavage of 0.17.
G10A U31C U80C gave a self-cleavage of 0.11.
For G9U U25C C29U U58C U72A, the self-cleavage was 0.06.
G10A C39U U49C A57G showed a self-cleavage of 0.11.
Work on G10A A18G U54C yielded a self-cleavage of 0.22.
For G10A A15U A47G U49C, the self-cleavage was 0.04.
Work on G10C C11U A18G C40U U43C A45U U54G yielded a self-cleavage of 0.03.
With G9U C40A A56G A77G the self-cleavage was 0.31.
G10A C40A U41C U43C U54A U66C U74C showed a self-cleavage of 0.03.
In the case of G10A A13G A35U U41C, the self-cleavage is reported as 0.19.
With G9U A56G U67C the self-cleavage was 0.12.
In the case of G10A A15G C32A U58G, the self-cleavage is reported as 0.05.
Work on G9U C17U A20U yielded a self-cleavage of 0.06.
In the case of G10A A20C U41C U58C U78A, the self-cleavage is reported as 0.04.
G10A G24A U25C gave a self-cleavage of 0.22.
G9U A21G U31C A45G U74C gave a self-cleavage of 0.13.
G9U U58C A75G showed a self-cleavage of 0.09.
For G10A U31C A45U U48C A56U, the self-cleavage was 0.07.
G10C C11G U26C U49A G52A showed a self-cleavage of 0.05.
For G9U G36C C50U U54C U66C, the self-cleavage was 0.07.
Variant G10A A18G A20G has a self-cleavage of 0.33.
G9U C17G U25A U43C A45U U66C gave a self-cleavage of 0.05.
For G10A C14U U25G U58C U66A G73A, the self-cleavage was 0.04.
G10A A20G A35G C40U A47U gave a self-cleavage of 0.06.
Variant G9U U31A A47G has a self-cleavage of 0.07.
In the case of G10A G24A U43A, the self-cleavage is reported as 0.33.
G9U U43G A75U gave a self-cleavage of 0.19.
G10A A15U U80C showed a self-cleavage of 0.07.
With G10A U49C G53U U78C the self-cleavage was 0.05.
Work on G9U G33U C50G yielded a self-cleavage of 0.04.
G10A U31G C32G U54C U58A U66C gave a self-cleavage of 0.03.
With G9U G33U A35U U41A U43A U69A the self-cleavage was 0.04.
G9U G70A U74A gave a self-cleavage of 0.04.
In the case of G9U C23U U26C, the self-cleavage is reported as 0.15.
In the case of G10A U31A U41C, the self-cleavage is reported as 0.09.
With G10A C27U A57U the self-cleavage was 0.27.
In the case of G10C A15G G33U A35U U72C, the self-cleavage is reported as 0.14.
G10A U31C A64G U80C gave a self-cleavage of 0.18.
Work on G10A A21G U58C A64U yielded a self-cleavage of 0.04.
G9U U31C U48C showed a self-cleavage of 0.06.
Work on G10A A15G G24U U41A A57U U80C yielded a self-cleavage of 0.06.
Work on G10A U49A U60A U69C yielded a self-cleavage of 0.07.
In the case of G10A A20G A45G A64G, the self-cleavage is reported as 0.07.
G10A A18U G22A U31C U49C U60A showed a self-cleavage of 0.04.
In the case of G10A A20G C29U U72A U78C, the self-cleavage is reported as 0.06.
For G10A U41A U80C, the self-cleavage was 0.2.
With G10C A18G C34G U67C C81U the self-cleavage was 0.12.
With G10A A20U U67C U80C the self-cleavage was 0.06.
In the case of G10A C11U A13U U49C C79U, the self-cleavage is reported as 0.09.
G10A U31C G36C G53A A65U gave a self-cleavage of 0.07.
With G9U A45G U48C U69C U78C the self-cleavage was 0.07.
G10A A15U U25C gave a self-cleavage of 0.13.
For G9U A45G U49C U58C U67C U72A, the self-cleavage was 0.06.
G10A U25C G42U gave a self-cleavage of 0.3.
